The results in this text go back to patent publication US20170290876A1 (Novartis, published 2017).

Assay [1] addresses T1, human VEGF (human, UniProt P15692 207-395, biotinylated (site not stated)).
T1 construct: Biotinylated human VEGF generated internally; also called hVEGF; hVEGF-biotin
T1 sequence: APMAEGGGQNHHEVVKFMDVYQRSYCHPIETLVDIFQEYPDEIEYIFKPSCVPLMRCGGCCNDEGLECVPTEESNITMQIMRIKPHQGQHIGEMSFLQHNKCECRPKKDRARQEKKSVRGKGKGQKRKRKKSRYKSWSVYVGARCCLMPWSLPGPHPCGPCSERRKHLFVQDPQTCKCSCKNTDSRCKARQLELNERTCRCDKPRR
In words: Biacore SPR, Hu VEGF-biotin, 37 C. In general terms: In SPR one partner is held on a chip, and binding of the other changes the refractive index at the surface.

Assay [2] has as its target T1, human VEGF. In words: Biacore SPR; affinity of NVS80T against untagged NVS80.
The target of assay [3] is T1, human VEGF. The assay can be described thus: Biacore SPR, hVEGF-biotin, 37 C.
The target of assay [4] is T1, human VEGF. In words: Biacore SPR; affinity of NVS84T against untagged NVS84.
Assay [5] concerns the target T1, human VEGF. In words: Biacore SPR, hVEGF-biotin, 25 C.
Assay [6] concerns the target T1, human VEGF. The assay can be described thus: Biacore SPR, Hu VEGF-biotin, 25 C.
The target of assay [7] is T1, human VEGF. In words: Biacore SPR; affinity of NVS83T against untagged NVS83.
The target in assay [8] is T1, human VEGF. The assay can be described thus: Biacore SPR; affinity of NVS82T against untagged NVS82.

B1: NVS80 (Fc fusion)
chain: SDTGRPFVEMYSEIPEIIHMTEGRELVIPCRVTSPNITVTLKKFPLDTLIPDGKRIIWDSRKGFIISNATYKEIGLLTCEATVNGHLYKTNYLTHRQTNTIIDVVLSPSHGIELSVGEKLVLNCTARTELNVGIDFNWEYPSSKHQHKKLVNRDLKTQSGSEMKKFLSTLTIDGVTRSDQGLYTCAASSGLMTKKNSTFVRVHEK[sequence of human IgG1 Fc with changes not given]
notes: Untagged VEGF Fc trap
On to B1, for which, in the assay with human VEGF [1], binding was characterised by a dissociation constant (Kd) of 44 pM; the off-rate (koff) – broadly, a measure of how fast the partners let go of each other – came out at 0.000115 s⁻¹; the kon (as a rule, the rate constant with which the complex forms) worked out at 2.62e+06 M⁻¹ s⁻¹.

B2: NVS80T (Fc fusion)
chain: SDTGRPFVEMYSEIPEIIHMTEGRELVIPCRVTSPNITVTLKKFPLDTLIPDGKRIIWDSRKGFIISNATYKEIGLLTCEATVNGHLYKTNYLTHRQTNTIIDVVLSPSHGIELSVGEKLVLNCTARTELNVGIDFNWEYPSSKHQHKKLVNRDLKTQSGSEMKKFLSTLTIDGVTRSDQGLYTCAASSGLMTKKNSTFVRVHEK[sequence of human IgG1 Fc with changes not given]GSGGGGVYHREAISGKYYLTYAEAKAVCEFEGGHLATYKQLEAAQQIGFHVCAAGWMAKGRVGYPIVKPGPNCGFGKTGIIDYGIRLQRSERWDAYCYNPHA
notes: VEGF Fc trap with HA tag at the C-terminus
B2: in the assay with human VEGF [1], the Kd (usually a measure of binding affinity in units of concentration) was 0.335 pM, the dissociation rate constant (koff) is 9.06e-05 s⁻¹ and the on-rate (kon) worked out at 2.71e+08 M⁻¹ s⁻¹. The Fold improvement with human VEGF [2] turned out to be 131 fold. In the assay with human VEGF [3], the Kd stood at 0.335 pM, the koff was 9.06e-05 s⁻¹ and the kon is 2.71e+08 M⁻¹ s⁻¹.

B3: NVS84T (designed binder)
chain: SDLGKKLLEAARAGQDDEVRILMANGADVNTADSTGWTPLHLAVPWGHLEIVEVLLKYGADVNAKDFQGWTPLHLAAAIGHQEIVEVLLKNGADVNAQDKFGKTAFDISIDNGNEDLAEILQKAAGSGGG[sequence of about 100 residues not given]SGGHHHHHH
notes: Anti-VEGF DARPin with HA tag at the C-terminus
In the assay with human VEGF [4], B3 showed a Fold improvement of 5.2 fold. In the assay with human VEGF [5], this molecule registered a Kd of 79.5 pM, an off-rate constant (koff) of 0.00126 s⁻¹ and an association rate constant (kon) of 1.59e+07 M⁻¹ s⁻¹. In the assay with human VEGF [6], this molecule gave a dissociation constant Kd of 79.5 pM, an off-rate constant (koff) of 0.00126 s⁻¹ and a kon of 1.59e+07 M⁻¹ s⁻¹.

B4: NVS1f (Fab)
heavy: EVQLVESGGGLVQPGGSLRLSCTASGFSLTDYYYMTWVRQAPGKGLEWVGFIDPDDDPYYATWAKGRFTISRDNSKNTLYLQMNSLRAEDTAVYYCAGGDHNSGWGLDIWGQGTLVTVSSASTKGPSVFPLAPSSKSTSGGTAALGCLVKDYFPEPVTVSWNSGALTSGVHTFPAVLQSSGLYSLSSVVTVPSSSLGTQTYICNVNHKPSNTKVDKRVEPKSCGSGGG[sequence of about 100 residues not given]
light: [sequence of about 100 residues not given]GGGSEIVMTQSPSTLSASVGDRVIITCQASEIIHSWLAWYQQKPGKAPKLLIYLASTLASGVPSRFSGSGSGAEFTLTISSLQPDDFATYYCQNVYLASTNGANFGQGTKLTVLKRTVAAPSVFIFPPSDEQLKSGTASVVCLLNNFYPREAKVQWKVDNALQSGNSQESVTEQDSKDSTYSLSSTLTLSKADYEKHKVYACEVTHQGLSSPVTKSFNRGEC
notes: NVS4 with one HA tag at heavy chain C-terminus and one at light chain N-terminus
As to B4, in the assay with human VEGF [5], the Kd came to 4.95 pM, the dissociation rate constant (koff) came out at 2.79e-05 s⁻¹ and the on-rate (kon) turned out to be 5.63e+06 M⁻¹ s⁻¹. In the assay with human VEGF [3], this molecule gave an equilibrium dissociation constant (Kd) of 4.64 pM, a koff of 2.43e-05 s⁻¹ and a kon of 5.23e+06 M⁻¹ s⁻¹.

B5: NVS1c (Fab)
heavy: [sequence of about 100 residues not given]GGGSEVQLVESGGGLVQPGGSLRLSCTASGFSLTDYYYMTWVRQAPGKGLEWVGFIDPDDDPYYATWAKGRFTISRDNSKNTLYLQMNSLRAEDTAVYYCAGGDHNSGWGLDIWGQGTLVTVSSASTKGPSVFPLAPSSKSTSGGTAALGCLVKDYFPEPVTVSWNSGALTSGVHTFPAVLQSSGLYSLSSVVTVPSSSLGTQTYICNVNHKPSNTKVDKRVEPKSCGS
light: [sequence of about 100 residues not given]GGGSEIVMTQSPSTLSASVGDRVIITCQASEIIHSWLAWYQQKPGKAPKLLIYLASTLASGVPSRFSGSGSGAEFTLTISSLQPDDFATYYCQNVYLASTNGANFGQGTKLTVLKRTVAAPSVFIFPPSDEQLKSGTASVVCLLNNFYPREAKVQWKVDNALQSGNSQESVTEQDSKDSTYSLSSTLTLSKADYEKHKVYACEVTHQGLSSPVTKSFNRGEC
notes: NVS4 with HA tags at the N-terminus of both chains
For B5, in the assay with human VEGF [5], the Kd amounted to 13.3 pM, the koff stood at 2.83e-05 s⁻¹ and the kon is 2.13e+06 M⁻¹ s⁻¹. In the assay with human VEGF [3], this molecule came in with a Kd of 13.9 pM, a koff of 2.81e-05 s⁻¹ and a kon of 2.03e+06 M⁻¹ s⁻¹.

B6: NVS1d (Fab)
heavy: EVQLVESGGGLVQPGGSLRLSCTASGFSLTDYYYMTWVRQAPGKGLEWVGFIDPDDDPYYATWAKGRFTISRDNSKNTLYLQMNSLRAEDTAVYYCAGGDHNSGWGLDIWGQGTLVTVSSASTKGPSVFPLAPSSKSTSGGTAALGCLVKDYFPEPVTVSWNSGALTSGVHTFPAVLQSSGLYSLSSVVTVPSSSLGTQTYICNVNHKPSNTKVDKRVEPKSCGSGGG[sequence of about 100 residues not given]
light: EIVMTQSPSTLSASVGDRVIITCQASEIIHSWLAWYQQKPGKAPKLLIYLASTLASGVPSRFSGSGSGAEFTLTISSLQPDDFATYYCQNVYLASTNGANFGQGTKLTVLKRTVAAPSVFIFPPSDEQLKSGTASVVCLLNNFYPREAKVQWKVDNALQSGNSQESVTEQDSKDSTYSLSSTLTLSKADYEKHKVYACEVTHQGLSSPVTKSFNRGECGSGGG[sequence of about 100 residues not given]
notes: NVS4 with HA tags at the C-terminus of both chains
In the assay with human VEGF [5], B6 showed a Kd of 1.39 pM, an off-rate (koff) of 2.36e-05 s⁻¹ and an on-rate (kon) of 1.7e+07 M⁻¹ s⁻¹. Further, in the assay with human VEGF [3], binding was put at a Kd of 2.63 pM, the koff was 2.58e-05 s⁻¹ and the on-rate (kon) amounted to 9.78e+06 M⁻¹ s⁻¹.

B7: NVS83T (scFv)
scFv: MEIVMTQSPSTLSASVGDRVIITCQASEIIHSWLAWYQQKPGKAPKLLIYLASTLASGVPSRFSGSGSGAEFTLTISSLQPDDFATYYCQNVYLASTNGANFGQGTKLTVLGGGGGGSGGGGSGGGGSSGGGSEVQLVESGGGLVQPGGSLRLSCTASGFSLTDYYYMTWVRQAPGKGLEWVGFIDPDDDPYYATWAKGRFTISRDNSKNTLYLQMNSLRAEDTAVYYCAGGDHNSGWGLDIWGQGTLVTVSSGSGGG[sequence of about 100 residues not given]
notes: scFv of NVS4 with HA tag at the C-terminus
For B7, the Fold improvement in the assay with human VEGF [7] was found to be 6.4 fold. Moreover, in the assay with human VEGF [5], binding was characterised by a dissociation constant (Kd) of 1.05 pM, the off-rate constant (koff) was determined as 8.49e-05 s⁻¹ and the on-rate (kon) was found to be 8.12e+07 M⁻¹ s⁻¹. In addition, in the assay with human VEGF [6], the Kd was found to be 1.05 pM, the off-rate constant (koff) was found to be 8.49e-05 s⁻¹ and the association rate constant (kon) turned out to be 8.12e+07 M⁻¹ s⁻¹.

B8: NVS85T (designed binder)
chain: SDLGKKLLEAARAGQDDEVRILMANGADVNAFDWMGWTPLHLAAHEGHLEIVEVLLKNGADVNATDVSGYTPLHLAAADGHLEIVEVLLKYGADVNTKDNTGWTPLHLSADLGRLEIVEVLLKYGADVNAQDKFGKTAFDISIDNGNEDLAEILQKAAGSGGG[sequence of about 100 residues not given]SGGHHHHHH
notes: as for B3
As for B8, in the assay with human VEGF [5], the Kd was found to be 9.37 pM, the off-rate constant (koff) came out at 0.00011 s⁻¹ and the on-rate constant (kon) was 1.18e+07 M⁻¹ s⁻¹.

B9: NVS82T (antibody, human IgG1, kappa)
heavy: EVQLVESGGGLVQPGGSLRLSCTASGFSLTDYYYMTWVRQAPGKGLEWVGFIDPDDDPYYATWAKGRFTISRDNSKNTLYLQMNSLRAEDTAVYYCAGGDHNSGWGLDIWGQGTLVTVSSASTKGPSVFPLAPSSKSTSGGTAALGCLVKDYFPEPVTVSWNSGALTSGVHTFPAVLQSSGLYSLSSVVTVPSSSLGTQTYICNVNHKPSNTKVDKRV[sequence of human IgG1 Fc with changes not given]
light: EIVMTQSPSTLSASVGDRVIITCQASEIIHSWLAWYQQKPGKAPKLLIYLASTLASGVPSRFSGSGSGAEFTLTISSLQPDDFATYYCQNVYLASTNGANFGQGTKLTVLKRTVAAPSVFIFPPSDEQLKSGTASVVCLLNNFYPREAKVQWKVDNALQSGNSQESVTEQDSKDSTYSLSSTLTLSKADYEKHKVYACEVTHQGLSSPVTKSFNRGECGSGGG[sequence of about 100 residues not given]
notes: IgG of NVS4 with HA tag at light chain C-terminus
As for B9, the Fold improvement in the assay with human VEGF [8] was 20.3 fold. In the assay with human VEGF [1], this molecule displayed a Kd of 0.375 pM, a koff of 3.19e-05 s⁻¹ and an on-rate constant (kon) of 8.52e+07 M⁻¹ s⁻¹. In the assay with human VEGF [3], this molecule registered an equilibrium dissociation constant (Kd) of 0.375 pM, an off-rate constant (koff) of 3.19e-05 s⁻¹ and an association rate constant (kon) of 8.52e+07 M⁻¹ s⁻¹.
